According to article PMC12040169 (PLOS Biology, 2025):
The other results are listed elsewhere or left out.

These molecules were tested on T1, C. trachomatis L2/434/Bu expressing GFP (CTL2-GFP). Details: total inclusion area; 28.5 h, 10 µM; inhibitor.
T1 construct: L2/434/Bu GFP intracellular growth in HeLa cells
Set-up: species or system HeLa; C. trachomatis total inclusion area by high-content imaging, normalised to DMSO
Procedure, shortened: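 Imaging read-out: GFP inclusions and Hoechst nuclei captured by high-content imaging after fixation. Inclusion area/number = chlamydial growth; nuclei count = host cell viability. MIC calculated per earlier method.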

Row | SMILES | % of control remaining
1 | CCCn1nc(COc2cccc(F)c2)nc1C1CCN(C(C)=O)CC1 [CBK306637] | 63.4855
2 | Cc1cccc(=O)n1CCCn1cc(C2CCOC2)nn1 (centres unmarked) [CBK307368] | 77.197
3 | O=C(O)c1cccc(NC(=S)NC(=O)C(c2ccccc2)c2ccccc2)c1 [CBK265053] | 100.499
4 | Cc1nnc2c(=O)n(CC(=O)N3CCN(C(C)C)CC3)c3cccnc3n12 [CBK288601] | 102.423
5 | Cc1nn(C)c(O)c1Cc1c(F)cccc1Cl [CBK067759] | 108.025
6 | Cc1cc2c(cc3c(=O)n(CC(=O)N4CCCC4)nc(C)n32)o1 [CBK283631] | 84.7826
7 | O=c1cc(N2CCOCC2)oc2ccccc12 [CBK008244G] | 106.02
8 | CC(=O)N1CCCc2cc(C(O)CN(C)Cc3ccccc3)ccc21 (centres unmarked) [CBK282149] | 103.285
9 | OCCOCCNc1ncnc2sc(-c3ccccc3)cc12 [CBK265951] | 75.1321
10 | CCOC(=O)c1cnc2ccc(Cl)cc2c1NC [CBK307605] | 54.3629
11 | CN(Cc1ccccc1)C(=O)CNS(=O)(=O)c1ccc([N+](=O)[O-])cc1 [CBK268586] | 91.1743
12 | COCCN(C(=S)Nc1ccc(OC)cc1)C(C)c1cccnc1 (centres unmarked) [CBK294471] | 123.015
13 | Cc1cccc(-c2n[nH]c(=S)n2CC(=O)Nc2cccc(C#Cc3ccccn3)c2)c1 [CBK296633] | 89.5516
14 | COc1ccc(N2C(=O)CC(NNC(N)=O)C2=O)cc1 (centres unmarked) [CBK263080] | 86.7894
15 | COc1ccc(-c2cnn(-c3ccc(OC(F)(F)F)cc3)n2)cc1 [CBK112773] | 81.4238
16 | Cc1csc2ncnc(N3CCN(C(=O)C4CC4)CC3)c12 [CBK023593] | 117.413
17 | NCCCNc1ccc(C(=O)Nc2ccc(Cl)cc2)cc1[N+](=O)[O-] [CBK267880] | 80.7234
18 | O=C(NCC1CCCCC1)c1ccccc1-n1cccc1 [CBK149603] | 90.7224
19 | O=c1cc(Nc2ccc3c(c2)OCO3)[nH]c(=O)n1-c1ccc(Cl)cc1 [CBK287507] | 103.485
20 | Cc1cc(O)cc(=O)n1Cc1cccnc1 [CBK291123] | 91.7235
21 | Cc1ccn(CCC(=O)N2CCC3(C/C=C/C[C@H]4COCC[C@@H]4NC(=O)CNC3=O)CC2)n1 [CBK292070] | 109.124
22 | COc1ccc(NC(=O)CC(C(=O)O)N2CCOCC2)cc1 (centres unmarked) [CBK266955] | 93.8572
23 | O=C(Nc1ccccc1)[C@H]1CN2CCC1C[C@@H]2Cn1cc(C2(O)CCCC2)nn1 (some centres unmarked) [CBK289091] | 106.685
